Measurements published in the supplement of paper PMC8728848.
This is one part of the list.

Columns and labels:
Assay in all cases: glycan array binding signal (z-score within array); higher = stronger binding
Conditions in all cases: glycan notation: IUPAC condensed, linker removed
[1] = target: Fuc(a1-2)Gal(b1-4)GlcNAc(b1-3)Gal(b1-4)GlcNAc(b1-3)Gal(b1-4)GlcNAc
In short: (§1)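 The Consortium for Functional Glycomics database supplied 3228 glycan arrays, of which those lacking an available protein sequence were dropped. The binding signal, a within-array Z-score, was averaged across arrays of the same protein sequence and across linkers. Negative scores can be read as non-binding.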

[2] = target: Fuc(a1-2)Gal(b1-4)GlcNAc(b1-3)GalNAc
In short: as §1

[3] = target: Fuc(a1-2)Gal(b1-4)GlcNAc(b1-3)[Fuc(a1-2)Gal(b1-4)GlcNAc(b1-6)]GalNAc
In short: as §1

[4] = target: Fuc(a1-2)Gal(b1-4)GlcNAc(b1-3)[Fuc(a1-3)[Gal(b1-4)]GlcNAc(b1-6)]Gal(b1-4)Glc
In short: as §1

[5] = target: Fuc(a1-2)Gal(b1-4)GlcNAc(b1-6)GalNAc
In short: as §1

[6] = target: Fuc(a1-2)Gal(b1-4)GlcNAc6S
In short: as §1

[7] = target: Fuc(a1-2)Gal(b1-4)[Fuc(a1-3)]GlcNAc
In short: as §1

[8] = target: Fuc(a1-2)Gal(b1-4)[Fuc(a1-3)]GlcNAc(b1-2)Man(a1-3)[Fuc(a1-2)Gal(b1-4)[Fuc(a1-3)]GlcNAc(b1-2)Man(a1-6)]Man(b1-4)GlcNAc(b1-4)[Fuc(a1-6)]GlcNAc
In short: as §1

[9] = target: Fuc(a1-2)Gal(b1-4)[Fuc(a1-3)]GlcNAc(b1-2)[Fuc(a1-2)Gal(b1-4)[Fuc(a1-3)]GlcNAc(b1-4)]Man(a1-3)[Fuc(a1-2)Gal(b1-4)[Fuc(a1-3)]GlcNAc(b1-2)Man(a1-6)]Man(b1-4)GlcNAc(b1-4)GlcNAc
In short: as §1

[10] = target: Fuc(a1-2)Gal(b1-4)[Fuc(a1-3)]GlcNAc(b1-3)Gal(b1-4)[Fuc(a1-3)]GlcNAc
In short: as §1

[11] = target: Fuc(a1-2)Gal(b1-4)[Fuc(a1-3)]GlcNAc(b1-3)Gal(b1-4)[Fuc(a1-3)]GlcNAc(b1-3)Gal(b1-4)[Fuc(a1-3)]GlcNAc
In short: as §1

[12] = target: Fuc(a1-2)Gal(b1-4)[Fuc(a1-3)]GlcNAc(b1-3)GalNAc
In short: as §1

[13] = target: Fuc(a1-2)Gal(b1-4)[Fuc(a1-3)]GlcNAc(b1-3)[Neu5Ac(a2-6)Gal(b1-4)GlcNAc(b1-6)]Gal(b1-4)Glc
In short: as §1

[14] = target: Fuc(a1-2)Gal3S(b1-4)GlcNAc
In short: as §1

[15] = target: Fuc(a1-2)Gal6S(b1-3)GlcNAc
In short: as §1

[16] = target: Fuc(a1-2)Gal6S(b1-3)GlcNAc6S
In short: as §1

Fuc(a1-2)Gal6S(b1-4)Glc = target: Fuc(a1-2)Gal6S(b1-4)Glc
In short: as §1

[17] = target: Fuc(a1-2)Gal6S(b1-4)Glc6S
In short: as §1

Fuc(a1-2)[Gal(a1-3)]Gal = target: Fuc(a1-2)[Gal(a1-3)]Gal
In short: as §1

[18] = target: Fuc(a1-2)[Gal(a1-3)]Gal(b1-3)GalNAc
In short: as §1

[19] = target: Fuc(a1-2)[Gal(a1-3)]Gal(b1-3)GalNAc(b1-3)Gal(a1-4)Gal(b1-4)Glc
In short: as §1

[20] = target: Fuc(a1-2)[Gal(a1-3)]Gal(b1-3)GlcNAc
In short: as §1

[21] = target: Fuc(a1-2)[Gal(a1-3)]Gal(b1-3)GlcNAc(b1-2)Man(a1-3)[Fuc(a1-2)[Gal(a1-3)]Gal(b1-3)GlcNAc(b1-2)Man(a1-6)]Man(b1-4)GlcNAc(b1-4)GlcNAc
In short: as §1

[22] = target: Fuc(a1-2)[Gal(a1-3)]Gal(b1-3)GlcNAc(b1-2)Man(a1-3)[Fuc(a1-2)[Gal(a1-3)]Gal(b1-3)GlcNAc(b1-2)Man(a1-6)]Man(b1-4)GlcNAc(b1-4)[Fuc(a1-6)]GlcNAc
In short: as §1

[23] = target: Fuc(a1-2)[Gal(a1-3)]Gal(b1-3)GlcNAc(b1-3)GalNAc
In short: as §1

[24] = target: Fuc(a1-2)[Gal(a1-3)]Gal(b1-3)GlcNAc(b1-6)GalNAc
In short: as §1

[25] = target: Fuc(a1-2)[Gal(a1-3)]Gal(b1-4)Glc
In short: as §1

[26] = target: Fuc(a1-2)[Gal(a1-3)]Gal(b1-4)GlcNAc
In short: as §1

[27] = target: Fuc(a1-2)[Gal(a1-3)]Gal(b1-4)GlcNAc(b1-2)Man
In short: as §1

[28] = target: Fuc(a1-2)[Gal(a1-3)]Gal(b1-4)GlcNAc(b1-2)Man(a1-3)[Fuc(a1-2)[Gal(a1-3)]Gal(b1-4)GlcNAc(b1-2)Man(a1-6)]Man(b1-4)GlcNAc(b1-4)GlcNAc
In short: as §1

B1: PfulAvr4 (Pseudocercospora fuligena) (protein)
chain: HHHHHHDYKDDDDKTYVQDKTPAFVCPAADIKTTKCLGPKDCLYPSPKTCNGYIQCSPADDSYLTGIIHEMPCPSGLLWNDNKKWCDWPENTTCGLVKSAGATEVDATKQGPTPGKYHG
glycan array binding signal (z-score) [1]: -0.092 | glycan array binding signal (z-score) [2]: -0.117 | glycan array binding signal (z-score) [3]: -0.054 | glycan array binding signal (z-score) [4]: -0.102 | glycan array binding signal (z-score) [5]: -0.055 | glycan array binding signal (z-score) [6]: -0.141 | glycan array binding signal (z-score) [7]: -0.091 | glycan array binding signal (z-score) [8]: -0.125 | glycan array binding signal (z-score) [9]: 0.683 | glycan array binding signal (z-score) [10]: -0.103 | glycan array binding signal (z-score) [11]: -0.046 | glycan array binding signal (z-score) [12]: -0.18 | glycan array binding signal (z-score) [13]: -0.22 | glycan array binding signal (z-score) [14]: -0.119 | glycan array binding signal (z-score) [15]: -0.18 | glycan array binding signal (z-score) [16]: -0.137 | glycan array binding signal (z-score) (Fuc(a1-2)Gal6S(b1-4)Glc): -0.115 | glycan array binding signal (z-score) [17]: -0.184 | glycan array binding signal (z-score) (Fuc(a1-2)[Gal(a1-3)]Gal): -0.109 | glycan array binding signal (z-score) [18]: -0.133 | glycan array binding signal (z-score) [19]: -0.115 | glycan array binding signal (z-score) [20]: -0.171 | glycan array binding signal (z-score) [21]: -0.05 | glycan array binding signal (z-score) [22]: 0.101 | glycan array binding signal (z-score) [23]: -0.056 | glycan array binding signal (z-score) [24]: -0.025 | glycan array binding signal (z-score) [25]: -0.08 | glycan array binding signal (z-score) [26]: -0.096 | glycan array binding signal (z-score) [27]: -0.124 | glycan array binding signal (z-score) [28]: -0.075
